According to PubChem BioAssay AID485360 (National Center for Advancing Translational Sciences (NCATS), 2010):
Out of some 230,000 compounds screened, about 1,500 (0.65%) were called active. Inconclusive means that the source gave no clear call. Such entries were picked first, then a sample of the others. Calls come from the whole dose curve; as a rule, active = well fitted inhibition curve with a large enough effect; inconclusive = small, poorly fitted or top-dose-only effect; inactive = no such curve, though single readings can be large or run the other way. A potency beside an inconclusive call is a rough fit, not a confirmed value. The source holds several records for some structures; these can differ, active in one and inactive in another.

Target: Lethal(3)malignant brain tumor-like protein 1 (Homo sapiens) (UniProt Q9Y468)
Chain of UniProt Q9Y468 (Q9Y468 whole entry, looked up): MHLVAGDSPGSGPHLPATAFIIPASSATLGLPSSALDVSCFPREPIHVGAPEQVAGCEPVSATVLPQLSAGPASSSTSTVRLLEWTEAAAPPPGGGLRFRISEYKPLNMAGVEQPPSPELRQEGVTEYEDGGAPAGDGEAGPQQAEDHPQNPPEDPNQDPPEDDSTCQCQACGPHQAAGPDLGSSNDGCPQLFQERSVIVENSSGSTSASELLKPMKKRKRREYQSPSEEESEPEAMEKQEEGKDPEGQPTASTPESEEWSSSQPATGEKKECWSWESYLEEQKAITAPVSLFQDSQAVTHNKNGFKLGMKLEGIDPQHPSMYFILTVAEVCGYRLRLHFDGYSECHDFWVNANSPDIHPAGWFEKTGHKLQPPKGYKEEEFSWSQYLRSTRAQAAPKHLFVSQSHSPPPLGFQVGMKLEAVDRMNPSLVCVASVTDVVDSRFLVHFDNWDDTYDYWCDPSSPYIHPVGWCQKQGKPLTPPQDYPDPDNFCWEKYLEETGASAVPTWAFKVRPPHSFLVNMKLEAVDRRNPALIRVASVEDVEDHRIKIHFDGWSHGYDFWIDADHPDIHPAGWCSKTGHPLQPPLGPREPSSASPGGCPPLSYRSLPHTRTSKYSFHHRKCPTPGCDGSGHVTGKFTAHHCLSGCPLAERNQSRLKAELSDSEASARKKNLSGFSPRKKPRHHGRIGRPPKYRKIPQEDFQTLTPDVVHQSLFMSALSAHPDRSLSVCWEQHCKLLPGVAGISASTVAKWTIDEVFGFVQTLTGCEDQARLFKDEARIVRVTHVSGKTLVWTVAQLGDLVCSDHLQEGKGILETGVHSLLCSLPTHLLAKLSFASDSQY
Assay: qHTS Assay for the Inhibitors of L3MBTL1; note: nearly all actives have a fitted effect of over 60% in size
Settings: AlphaScreen L3MBTL1–H3K9me1 peptide binding; series mostly up to 57.1 µM
In short: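 First, the protein-peptide complex forms for 30 min at room temperature (L3MBTL1 50 nM, biotinylated H3K9me1 peptide 75 nM). Next, compounds are pin-transferred and incubated 30 min. Finally, AlphaScreen beads are added and read after 30 min.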
Potency is the fitted concentration of half-maximal effect; tags give direction and shape of the fitted curve.

**Q.** Which Potency does the source give for `N#CC1=C(N)Oc2n[nH]c(-c3cccnc3)c2C1c1ccc([N+](=O)[O-])o1` (stereo unspecified) here?
**A.** inconclusive: 39.8 µM [inhibitor, single point]

**Q.** For `COCCn1c(C)cc(C(=O)COC(=O)C2CC(=O)N(CCc3ccc(OC)c(OC)c3)C2)c1C` (stereo unspecified), which Potency is on record?
**A.** inconclusive: 35.5 µM [inhibitor, partial curve]

**Q.** `O=C(Oc1ccc(-c2nnco2)cc1)N1CCOCC1` was tested. Which Potency did it give?
**A.** inconclusive: 3.98 µM [inhibitor, partial curve]

**Q.** `CCOC(=O)C1CCCN(C(=O)c2ccc(-c3ccc([N+](=O)[O-])cc3)o2)C1` (stereo unspecified) was tested. Which Potency did it give?
**A.** inactive

**Q.** With `O=C(/C=C/c1ccccc1)NC(=S)NNC(=O)c1cccnc1` as the compound, how does the Potency read?
**A.** inactive

**Q.** For `CCOc1ccc(C(=O)Nc2ccc(NC(=O)c3cccs3)cc2)cc1[N+](=O)[O-]`, which Potency is on record?
**A.** inconclusive: 4.47 µM [inhibitor, single point]

**Q.** For `COC(=O)[C@]1(CC(C)C)N[C@H](c2ccc(-c3cccc(Cl)c3)cc2)[C@@H]2C(=O)N(C)C(=O)[C@@H]21`, which Potency is on record?
**A.** inconclusive: 5.01 µM [inhibitor, single point]

**Q.** Which Potency does the source give for `CCCCC(O)(CCCC)C(=O)NN(C(=O)OC)c1ccccc1` here?
**A.** inconclusive: 0.794 µM [inhibitor, single point]

**Q.** With `COc1ccc(/C(C)=N/NC(=O)c2cccc(S(=O)(=O)N3CCCC3)c2)c(O)c1` as the compound, how does the Potency read?
**A.** active: 6.31 µM

**Q.** For `CCN1C(=O)C(O)(CC(=O)c2ccc(-n3cccc3)cc2)c2ccccc21` (stereo unspecified), which Potency is on record?
**A.** inconclusive: 6.31 µM [inhibitor, single point]

**Q.** `C(=N\n1cnnc1)/c1ccc(-c2ccccc2)cc1` was tested. Which Potency did it give?
**A.** inactive

**Q.** Which Potency does the source give for `CO/N=C/C(=N\Nc1ccc(OC)cc1)C(=O)c1ccc(F)cc1` here?
**A.** inconclusive: 2.82 µM [inhibitor, partial curve]

**Q.** `Cc1[nH][nH]c(=O)c1C(c1c(C)[nH][nH]c1=O)c1cn(Cc2ccc(F)cc2)c2ccccc12` was tested. Which Potency did it give?
**A.** inconclusive: 31.6 µM [inhibitor, single point]

**Q.** `CC(=O)N1CCN(c2ccc(NCc3ccc(C(C)C)cc3)cc2)CC1` was tested. Which Potency did it give?
**A.** inconclusive: 15.8 µM [inhibitor, partial curve]

**Q.** Which Potency does the source give for `CS(=O)(=O)N1N=C(c2ccco2)CC1c1ccco1` (stereo unspecified) here?
**A.** inconclusive: 39.8 µM [inhibitor, single point]

**Q.** How did the Potency turn out when `CC(C)Cn1c(/C=N/Nc2nc3ccccc3[nH]2)nc2ccccc21` was run?
**A.** inconclusive: 14.1 µM [inhibitor, partial curve]

**Q.** With `Cc1nc(NC(=O)CCc2ccccc2)sc1C` as the compound, how does the Potency read?
**A.** inactive

**Q.** For `O=[N+]([O-])c1cc(S(=O)(=O)C(F)(F)F)ccc1N1CCN(c2ccccc2)CC1`, which Potency is on record?
**A.** inconclusive: 35.5 µM [inhibitor, partial curve]

**Q.** With `O=C(Nc1ccc(C(F)(F)F)cc1)c1cc(-c2cccnc2)nc2ccc(Br)cc12` as the compound, how does the Potency read?
**A.** inconclusive: 0.794 µM [inhibitor, single point]

**Q.** How did the Potency turn out when `CC(=O)Oc1cc2cccc(OC(C)=O)c(=O)c2c(OC(C)=O)c1OC(C)=O` was run?
**A.** active: 0.355 µM

**Q.** How did the Potency turn out when `CCOC(=O)C1=C(c2ccccc2)NC(N)=NC1c1ccc(OCc2ccc(Cl)cc2)c(OC)c1` (stereo unspecified) was run?
**A.** inconclusive: 14.1 µM [inhibitor, partial curve]

**Q.** Which Potency does the source give for `COc1ccc(C2SCC(=O)N2CCc2ccc(OC)c(OC)c2)cc1` (stereo unspecified) here?
**A.** inconclusive: 7.94 µM [inhibitor, partial curve]

**Q.** How did the Potency turn out when `CCN(Cc1ccc(N(C)C)cc1)C(C)C(=O)Nc1ccc(S(=O)(=O)N2CCCC2)cc1` (stereo unspecified) was run?
**A.** inconclusive: 25.1 µM [inhibitor, single point]

**Q.** For `COc1ccc(NC(=O)CN(c2cc(C)cc(C)c2)S(=O)(=O)c2c(C)noc2C)cc1OC`, which Potency is on record?
**A.** inconclusive: 35.5 µM [inhibitor, single point]

**Q.** For `Cc1ccc(C(=O)Nc2ccc(N3CCN(C)CC3)nc2)cc1`, which Potency is on record?
**A.** inconclusive: 20 µM [inhibitor, partial curve]

**Q.** For `N#CC(C#N)=C(N)/C(C#N)=C/c1cc(O)c(O)c(O)c1`, which Potency is on record?
**A.** inconclusive: 31.6 µM [inhibitor, single point]

**Q.** With `O=C(CNc1cccc([N+](=O)[O-])c1)N/N=C/c1ccc(F)cc1` as the compound, how does the Potency read?
**A.** inconclusive: 0.316 µM [inhibitor, full curve, poor fit]

**Q.** With `C#CCOCCOCCOCCNc1nc(N2CCN(C(=O)[C@H](Cc3ccc(O)cc3)n3cc([C@@H](N)C(C)CC)nn3)CC2)nc(N2CCN(C(=O)[C@H](Cc3cc4ccccc4[nH]3)n3cc([C@@H](N)C(C)CC)nn3)CC2)n1` (stereo partly specified) as the compound, how does the Potency read?
**A.** inconclusive: 6.31 µM [inhibitor, partial curve]

**Q.** Which Potency does the source give for `CCOc1ccc(NCc2nc3ccccc3n2CCOc2ccccc2)cc1` here?
**A.** inconclusive: 35.5 µM [inhibitor, single point]

**Q.** `CN(C)/C=C(\C#N)C(=O)N/N=C/c1ccc(Cl)cc1` was tested. Which Potency did it give?
**A.** inconclusive: 0.891 µM [inhibitor, full curve]

**Q.** `CCOc1cc(/C=N/Nc2cc(C)nc(-n3nc(C)cc3C)n2)ccc1O` was tested. Which Potency did it give?
**A.** inconclusive: 12.6 µM [inhibitor, partial curve]

**Q.** For `CCN(CC)c1ccc(NC(=O)CSC(=O)c2ccccc2)cc1`, which Potency is on record?
**A.** inconclusive: 31.6 µM [inhibitor, single point]

**Q.** With `O=C(NCC#CCSc1nnc(-c2cccc3ccccc23)o1)c1cccs1` as the compound, how does the Potency read?
**A.** active: 10 µM

**Q.** With `COc1ccc2c(c1)CCC1=C2NC(=S)NC1c1ccc(N(C)C)cc1` (stereo unspecified) as the compound, how does the Potency read?
**A.** inconclusive: 12.6 µM [inhibitor, partial curve]

**Q.** How did the Potency turn out when `Cc1cc(OCC(=O)NCCO)cc(C)c1Cl` was run?
**A.** inactive

**Q.** `Cc1ccc(-c2cnc(SCCNC(=O)c3ccco3)[nH]2)cc1` was tested. Which Potency did it give?
**A.** inactive

**Q.** With `COC(=O)C1=C(N)Oc2cc(N(C)C)ccc2C1c1ccccc1OC` (stereo unspecified) as the compound, how does the Potency read?
**A.** inconclusive: 20 µM [inhibitor, single point]

**Q.** Which Potency does the source give for `COc1ccc(S(=O)(=O)N(C)C2CCN(C)CC2)cc1` here?
**A.** inconclusive: 39.8 µM [inhibitor, single point]

**Q.** `COC(=O)c1scc(C)c1NC(=O)/C=C/C(=O)O` was tested. Which Potency did it give?
**A.** inactive

**Q.** With `Cc1ccc(C)c(NC(=S)/C(=C(\[O-])c2ccc(Cl)s2)[n+]2ccccc2)c1` as the compound, how does the Potency read?
**A.** inconclusive: 39.8 µM [inhibitor, single point]

**Q.** `Cc1c(NC(=O)COC(=O)c2ccccc2Cl)c(=O)n(-c2ccccc2)n1C` was tested. Which Potency did it give?
**A.** inconclusive: 0.631 µM [inhibitor, single point]
